# According to the supplement of paper PMC8728848:
# Some of the results follow.
# B1: InvD YPIII (Yersinia pseudotuberculosis), B1JSC0 (protein)
# chain: MIKYFSFFKKPEPIVGILPNRQSHHILPTHIRRVAWGTLLLQLFIPLSVSFSPAIAAMKASKADTMVSYSSTEPYVLGSGETVAMVAKKYGITVDELKKINIYRTFSRPFTALTTGDEIDIPRKASPFSVDNNKDNRLSVENTLAGHAVAGATALSNGDVAKSGERMVRSAASNEFNNSAQQWLSQFGTARVQLNINDDFHLDGSAADVLIPLYDNEKSILFTQLGARNKDSRNTVNMGAGVRTFQGNWMYGANTFFDNDLTGKNRRIGVGAEAWTDYLKLSANNYFGITDWHQSRDFIDYNERPANGYDLRAEAYLPSYPQLGGKAMYEKYRGDDVALFGKDNRQKNPHAITAGVNYTPIPLVTIGAEHRAGKGGQNDSNINFQLNYRLGETWQSHIDPSAVAASRTLAGSRYDLVERNNHIVLDYQKQNLVRLSLPDSLAGDPFSQLSVTAQVTATHGLERIDWQSAELMAAGGVLKQTSKNGLEITLPEYQMNRTGGNSYILNAIAYDTQGNASSQASMLITVNAQKINIANSTLVAVPINIEANNSDTSVVTLTLKDDNNIPVTGQDVTFLSPLGTLSAMTDSGNGVYTATLTAGTVSGTTAVSSNINGSALDMTPATVTLNGNSGELSITHSMLVAAPVNIEANGSDTSVVTLTLRDSNNNPVTGQTVTFAGTLGTLGAVTEGSSGVYTATLTAGIMVGTSSITASVNSTALGVTPATVTLNGDSGNLSTTNSTLVAAPVNIEANSSDTSVVTLTLRDNNNNPVTGQTVVFTSTLGTLGNVTEQASGVYTATLTAGTVSGVASLSVSVGGNALGVTPATVTLNGDSGNLSTTNSTLVAAPVNIEANSSDTSVVTLTLRDNNNNPVTGQTVNFAGTLGTLGTVSEGSSGVYTTTLTAGTVAGVASLSVNVGGNALGVTPATVTLNGNSGNLSATNSTLVAAPVNIEANSSDTSVVTLTLRDNNNNPVTGQTVAFTSTLGTLGNVTEQASGVYTATLTAGTVSGVASLSVSVNSNALGVTPATVTLNGDSGNLSTTNSTLVAAPVNIEANSSDTSVVTLTLRDNNNNPVTGQTVAFTSTLGTLGNVTEQASGLYTATLTAGTVSGVASLSVNVGGNALGVTPATVTLNGDSGNLSATNSTLVAAPVNIEANSSDTSVVTLTLRDNNNNPVTGQTVAFTSTLGTLGNVTEQASGLYTATLTAGTVSGVASLSVNVGGTALGVTPATVTLNGDSGNLSTTNSTLVAAPVNIEANSSDTSVVTLTLRDNNNNPVTGQTVAFTSTLGTLGNVTEQASGLYTATLTAGTVSGVASLSVSVNSTALGVTPATVTLNGDSGNLSTTNSTLVAAPVNIEANSSDTSVVTLTLRDNNNNPVTGQTVAFTSTLGTLGNVTEQASGVYTATLTAGTVAGVASLSVNVGGNALGVTPATVTLNGDSGNLSTTNSTLVAAPVNIEANSSDTSVVTLTLRDNNNNPVTGQTVAFTSTLGTLGNVTEQASGVYTATLTAGTVSGVASLSVSVGSSALGVTPATVTLNGDSGNLSTTNSTLVAAPVNIEANNSDTSVVTLTLRDNNNNPVTGQTVAFTSTLGTLGNVTEQASGVYTATLTAGTVSGVASLSVSVNSNALGVTPATVTLNGDSGNLSTTNSTLVAAPVNIEANSSDTSVVTLTLRDNNNNPVTGQTVVFTSTLGTLGNVTEQASGLYTATLTAGTVSGVASLSVSVGGNALGVTGNITLAPGALDAARSILAVNKPSINADDRIGSTITFTAQDAQGNAITGLDIAFMTDLENSQIMTLVDHNDGTYTANINGTQTGIANIAVQSSGATIAGLAATMVTITPGAWNTTQATPVMTVALPITTCQSSSGVYKRYYIGIVTHELYDNYGNEISGILTYNLGAGRYTTVTSQNSSVSGSNGLTRRSNSPVSHFILTSDAYTSQAACYAERIANVNVTITVTAITDDFKTSAVNKVFILGTGSN
# Tests used:
# Test in all cases: glycan array binding signal (z-score within array); higher = stronger binding
# Conditions in all cases: glycan notation: IUPAC condensed, linker removed
# [1] = molecular target: Gal(b1-3)GlcNAc(b1-2)Man(a1-3)[Gal(b1-3)GlcNAc(b1-2)Man(a1-6)]Man(b1-4)GlcNAc(b1-4)GlcNAc
# How it was run: (§1)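 Negative Z-scores can be read as non-binding. The Z-score is calculated within each array and then averaged across arrays of one protein sequence at different concentrations or buffers and across linkers. Arrays, 3228 in all, were curated from the Consortium for Functional Glycomics database and kept only where the protein sequence was available.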
# [2] = molecular target: Gal(b1-3)GlcNAc(b1-2)Man(a1-3)[Gal(b1-3)GlcNAc(b1-2)Man(a1-6)]Man(b1-4)GlcNAc(b1-4)[Fuc(a1-6)]GlcNAc
# How it was run: as §1
# [3] = molecular target: Gal(b1-3)GlcNAc(b1-2)Man(a1-3)[GlcNAc(b1-4)][Gal(b1-3)GlcNAc(b1-2)Man(a1-6)]Man(b1-4)GlcNAc(b1-4)GlcNAc
# How it was run: as §1
# [4] = molecular target: Gal(b1-3)GlcNAc(b1-2)[Gal(b1-3)GlcNAc(b1-6)]Man(a1-6)[Gal(b1-3)GlcNAc(b1-2)Man(a1-3)]Man(b1-4)GlcNAc(b1-4)GlcNAc
# How it was run: as §1
# [5] = molecular target: Gal(b1-3)GlcNAc(b1-3)Gal(b1-3)GlcNAc
# How it was run: as §1
# [6] = molecular target: Gal(b1-3)GlcNAc(b1-3)Gal(b1-4)Glc
# How it was run: as §1
# [7] = molecular target: Gal(b1-3)GlcNAc(b1-3)Gal(b1-4)GlcNAc
# How it was run: as §1
# [8] = molecular target: Gal(b1-3)GlcNAc(b1-3)Gal(b1-4)GlcNAc(b1-2)Man(a1-3)[Gal(b1-3)GlcNAc(b1-3)Gal(b1-4)GlcNAc(b1-2)Man(a1-6)]Man(b1-4)GlcNAc(b1-4)GlcNAc
# How it was run: as §1
# [9] = molecular target: Gal(b1-3)GlcNAc(b1-3)Gal(b1-4)GlcNAc(b1-2)[Gal(b1-3)GlcNAc(b1-3)Gal(b1-4)GlcNAc(b1-6)]Man(a1-6)[Gal(b1-3)GlcNAc(b1-3)Gal(b1-4)GlcNAc(b1-2)Man(a1-3)]Man(b1-4)GlcNAc(b1-4)[Fuc(a1-6)]GlcNAc
# How it was run: as §1
# [10] = molecular target: Gal(b1-3)GlcNAc(b1-3)Gal(b1-4)GlcNAc(b1-3)Gal(b1-4)GlcNAc(b1-2)[Gal(b1-3)GlcNAc(b1-3)Gal(b1-4)GlcNAc(b1-3)Gal(b1-4)GlcNAc(b1-6)]Man(a1-6)[Gal(b1-3)GlcNAc(b1-3)Gal(b1-4)GlcNAc(b1-3)Gal(b1-4)GlcNAc(b1-2)Man(a1-3)]Man(b1-4)GlcNAc(b1-4)[Fuc(a1-6)]GlcNAc
# How it was run: as §1
# [11] = molecular target: Gal(b1-3)GlcNAc(b1-3)Gal(b1-4)GlcNAc(b1-6)[Gal(b1-3)GlcNAc(b1-3)]Gal(b1-4)Glc
# How it was run: as §1
# [12] = molecular target: Gal(b1-3)GlcNAc(b1-3)Gal(b1-4)[Fuc(a1-3)]GlcNAc
# How it was run: as §1
# [13] = molecular target: Gal(b1-3)GlcNAc(b1-3)Gal(b1-4)[Fuc(a1-3)]GlcNAc(b1-6)[Gal(b1-3)GlcNAc(b1-3)]Gal(b1-4)Glc
# How it was run: as §1
# [14] = molecular target: Gal(b1-3)GlcNAc(b1-3)GalNAc
# How it was run: as §1
# [15] = molecular target: Gal(b1-3)GlcNAc(b1-6)Gal(b1-4)GlcNAc
# How it was run: as §1
# [16] = molecular target: Gal(b1-3)GlcNAc(b1-6)GalNAc
# How it was run: as §1
# [17] = molecular target: Gal(b1-3)GlcNAc(b1-6)[Gal(b1-3)]GalNAc
# How it was run: as §1
# Gal(b1-3)GlcNAc6S = molecular target: Gal(b1-3)GlcNAc6S
# How it was run: as §1
# [18] = molecular target: Gal(b1-3)[Fuc(a1-4)]GlcNAc
# How it was run: as §1
# [19] = molecular target: Gal(b1-3)[Fuc(a1-4)]GlcNAc(b1-2)Man
# How it was run: as §1
# [20] = molecular target: Gal(b1-3)[Fuc(a1-4)]GlcNAc(b1-2)Man(a1-3)[Gal(b1-3)[Fuc(a1-4)]GlcNAc(b1-2)Man(a1-6)]Man(b1-4)GlcNAc(b1-4)[Fuc(a1-6)]GlcNAc
# How it was run: as §1
# [21] = molecular target: Gal(b1-3)[Fuc(a1-4)]GlcNAc(b1-3)Gal(b1-3)[Fuc(a1-4)]GlcNAc
# How it was run: as §1
binder,measurement,setting,value
B1,glycan array binding signal (z-score),[1],0.108
same,glycan array binding signal (z-score),[2],0.497
same,glycan array binding signal (z-score),[3],0.074
same,glycan array binding signal (z-score),[4],-0.201
same,glycan array binding signal (z-score),[5],-0.224
same,glycan array binding signal (z-score),[6],-0.069
same,glycan array binding signal (z-score),[7],-0.261
same,glycan array binding signal (z-score),[8],-0.358
same,glycan array binding signal (z-score),[9],-0.065
same,glycan array binding signal (z-score),[10],0.357
same,glycan array binding signal (z-score),[11],-0.192
same,glycan array binding signal (z-score),[12],-0.098
same,glycan array binding signal (z-score),[13],-0.245
same,glycan array binding signal (z-score),[14],-0.241
same,glycan array binding signal (z-score),[15],-0.168
same,glycan array binding signal (z-score),[16],-0.16
same,glycan array binding signal (z-score),[17],-0.299
same,glycan array binding signal (z-score),Gal(b1-3)GlcNAc6S,0.273
same,glycan array binding signal (z-score),[18],-0.119
same,glycan array binding signal (z-score),[19],-0.101
same,glycan array binding signal (z-score),[20],0.771
same,glycan array binding signal (z-score),[21],-0.223
